Measured values reported in paper PMC4336329 (PLoS ONE, 2015).
Hit rate of the full screen: of about 310,000 compounds, about 2,200 (0.71%) showed an effect of 50% or more. The effect is printed as a negative number. Some of the results follow.

molecular target: human ether-à-go-go-related gene (hERG) potassium channel (human, UniProt Q12809); assay: primary screen, population patch clamp on CHO cells stably expressing hERG
Sequence (Q12809 whole entry, looked up): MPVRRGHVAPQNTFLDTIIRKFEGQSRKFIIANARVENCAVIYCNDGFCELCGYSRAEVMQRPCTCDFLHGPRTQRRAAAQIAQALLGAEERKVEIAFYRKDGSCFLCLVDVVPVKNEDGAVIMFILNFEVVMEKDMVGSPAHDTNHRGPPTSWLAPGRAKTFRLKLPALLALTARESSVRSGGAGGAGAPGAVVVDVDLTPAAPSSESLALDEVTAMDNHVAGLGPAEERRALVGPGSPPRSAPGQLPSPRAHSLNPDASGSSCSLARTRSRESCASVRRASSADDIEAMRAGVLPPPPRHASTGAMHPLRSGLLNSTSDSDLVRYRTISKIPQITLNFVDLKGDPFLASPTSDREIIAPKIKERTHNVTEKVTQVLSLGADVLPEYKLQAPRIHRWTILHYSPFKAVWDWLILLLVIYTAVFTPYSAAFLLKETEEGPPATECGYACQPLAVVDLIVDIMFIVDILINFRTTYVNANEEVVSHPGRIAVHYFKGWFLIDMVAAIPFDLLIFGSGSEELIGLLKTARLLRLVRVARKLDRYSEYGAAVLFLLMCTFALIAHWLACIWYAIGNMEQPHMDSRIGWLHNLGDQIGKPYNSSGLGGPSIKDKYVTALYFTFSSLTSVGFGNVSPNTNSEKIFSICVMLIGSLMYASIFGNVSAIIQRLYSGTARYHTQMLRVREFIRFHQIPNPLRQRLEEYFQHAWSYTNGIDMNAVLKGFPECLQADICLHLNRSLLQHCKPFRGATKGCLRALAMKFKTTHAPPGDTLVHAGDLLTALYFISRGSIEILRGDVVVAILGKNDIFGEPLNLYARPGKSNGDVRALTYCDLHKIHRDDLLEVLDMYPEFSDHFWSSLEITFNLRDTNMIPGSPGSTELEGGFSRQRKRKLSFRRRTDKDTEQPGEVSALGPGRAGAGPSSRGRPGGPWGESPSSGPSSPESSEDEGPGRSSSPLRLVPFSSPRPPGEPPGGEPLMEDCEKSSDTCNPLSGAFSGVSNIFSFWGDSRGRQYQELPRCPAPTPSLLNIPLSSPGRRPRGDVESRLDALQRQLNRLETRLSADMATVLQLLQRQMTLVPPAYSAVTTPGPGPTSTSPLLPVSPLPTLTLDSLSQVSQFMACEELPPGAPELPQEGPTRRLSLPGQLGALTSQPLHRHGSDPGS

Going from `O=C(O)CCc1nc2ccccc2c(=O)[nH]1` to `O=C(O)CCN=C1CCc2ccccc2N1`, the “hERG current change (%, negative = inhibition) at 1uM” value rises from 7.81% to 17.5%.

First: CCOc1ccc(C(=O)NC(C(=O)NCc2ccccn2)C(C)C)cc1 (stereo not drawn)
Second: O=C(Cn1cccc1C(=O)c1ccccc1)NCc1ccccn1
The “hERG current change (%, negative = inhibition) at 1uM” value of the first is lower: 11.2% for the first, 11.3% for the second.

First: S=c1[nH]nc(COc2ccccc2)n1Cc1ccccc1
Second: O=[N+]([O-])c1ccccc1-n1cnc2ccccc21
The “hERG current change (%, negative = inhibition) at 1uM” value of the first is lower: 11.8% for the first, 14.3% for the second.

Compared with `COc1ccc(N/C(=N/c2nc(C)cc(C)n2)NC(=O)c2ccccc2)cc1`, `COc1ccc(NC(=O)Cn2c(CCC(=O)O)ccc2-c2ccccc2)cc1` is lower in “hERG current change (%, negative = inhibition) at 1uM” value: 14.8% for the first, 13.2% for the second.

Going from `[O-][n+]1onc2c1CCC1N(O)CCC21O` (stereo not drawn) to `Cn1cnnc1SCC(=O)NC1CCCN(Cc2ccc(Cl)cc2)C1` (stereo not drawn), the “hERG current change (%, negative = inhibition) at 1uM” value rises from 8.35% to 9.98%.

Going from `CCO[C@@H]1OC(C(=O)N2CCCCCCC2)=C[C@H](c2cn(C(C)=O)c3ccccc23)[C@H]1CCCO` to `CCO[C@@H]1OC(C(N)=O)=C[C@H](c2cn(C(C)=O)c3ccccc23)[C@H]1CCCO`, the “hERG current change (%, negative = inhibition) at 1uM” value rises from -3.87% to 5.16%.

First: COCC(C)NC(=O)c1cccc([N+](=O)[O-])c1 (stereo not drawn)
Second: CC(C)CC(C)NC(=O)c1ccc(C(F)(F)F)cc1 (stereo not drawn)
The “hERG current change (%, negative = inhibition) at 1uM” value of the first is higher: 16.2% for the first, 10.6% for the second.

First: Cc1ccc(N2CC(C(=O)OCC(=O)C(C)(C)C)CC2=O)cc1 (stereo not drawn)
Second: CN1CCN(C(=O)c2ccccc2NC(=O)C(C)(C)C)CC1
The “hERG current change (%, negative = inhibition) at 1uM” value of the first is lower: 4.44% for the first, 11.9% for the second.

First: CC(Cl)C(=O)Nc1ncc(C(F)(F)F)cc1Cl (stereo not drawn)
Second: OC(CNCc1ccccc1C(F)(F)F)C(F)(F)F (stereo not drawn)
The “hERG current change (%, negative = inhibition) at 1uM” value of the first is lower: -4.71% for the first, 6.66% for the second.

Compared with `O=C1CC(c2ccco2)=Nc2ccccc2N1`, `O=C1Nc2ccccc2C(O)(C(=O)NCc2ccco2)N1c1ccccc1` (stereo not drawn) is higher in “hERG current change (%, negative = inhibition) at 1uM” value: 10.1% for the first, 12.5% for the second.

First: Cc1cc(C)n(/N=C\c2c(O)ccc3ccccc23)c(=O)c1C(N)=O
Second: CCOc1cc(/C=C2\SC(=S)N(Nc3ccccc3)C2=O)ccc1O
The “hERG current change (%, negative = inhibition) at 1uM” value of the first is lower: 2.39% for the first, 2.8% for the second.

Compared with `CN(Cc1ccccc1F)C(=O)c1ccc(Oc2ccccc2)cc1`, `CCOc1ccccc1N(CC(=O)Nc1ccccc1F)S(=O)(=O)c1ccccc1` is higher in “hERG current change (%, negative = inhibition) at 1uM” value: -3.7% for the first, 6.43% for the second.

First: O=C(c1ccc(CS(=O)c2cccc(Cl)c2)o1)N1CCN(C2CCCCC2)CC1 (stereo not drawn)
Second: O=C(NC1CCCCCC1)c1ccc2nc3cc(Cl)ccc3c(=O)n2c1
The “hERG current change (%, negative = inhibition) at 1uM” value of the first is lower: 0.866% for the first, 4.2% for the second.

Compared with `CS(=O)(=O)c1ccc2nnn(OCC(=O)Nc3cccc(C#N)c3)c2c1`, `C=CCn1c(COc2ccc(F)cc2)nnc1SCC(=O)Nc1cccc(S(N)(=O)=O)c1` is higher in “hERG current change (%, negative = inhibition) at 1uM” value: 4.28% for the first, 11.5% for the second.

Compared with `O=C(NC(=S)Nc1ccccn1)c1cncc(Br)c1`, `S=C(Nc1cccnc1)Nc1ccccn1` is lower in “hERG current change (%, negative = inhibition) at 1uM” value: 11.4% for the first, 10.5% for the second.

Compared with `CC(C)CC(=O)Nc1ncc([N+](=O)[O-])s1`, `CCN=c1sc(C(=O)OC)cc(=O)n1CC` is higher in “hERG current change (%, negative = inhibition) at 1uM” value: 12.7% for the first, 21.5% for the second.

First: O=C(OCc1cnc(Cl)s1)c1cccc(Cl)c1Cl
Second: Cc1c(NC(=O)COc2cccc(Cl)c2Cl)c(=O)n(-c2ccccc2)n1C
The “hERG current change (%, negative = inhibition) at 1uM” value of the first is higher: 12.7% for the first, -8.72% for the second.

Going from `Cc1cc2oc(=O)cc(CN3CCC(C)CC3)c2cc1Cl` to `CC1(C)Oc2ccc3ccc(=O)oc3c2C(N2CCCCC2)C1O` (stereo not drawn), the “hERG current change (%, negative = inhibition) at 1uM” value falls from 5.54% to 0.376%.

Going from `Cc1ccc(-c2nnn(CC(=O)N(CC3CCCO3)C(C(=O)NC(C)(C)C)c3ccc(F)cc3)n2)o1` (stereo not drawn) to `O=C(O)c1ccc(C(=O)c2ccc3c(c2)C(=O)N(CC2CCCO2)C3=O)cc1` (stereo not drawn), the “hERG current change (%, negative = inhibition) at 1uM” value falls from 19.4% to 14.4%.

First: COc1ccc(/C=C/C(=O)NC(=S)N2CCN(C)CC2)cc1
Second: CC(C)CC(=O)N1CCN(Cc2ccc(Cl)cc2)CC1
The “hERG current change (%, negative = inhibition) at 1uM” value of the first is higher: 11.4% for the first, -0.383% for the second.

First: O=C(O)COc1ccc(F)cc1Br
Second: CCC(C)C(NC(N)=O)C(=O)Nc1ccc(C)c(Cl)c1 (stereo not drawn)
The “hERG current change (%, negative = inhibition) at 1uM” value of the first is lower: 8.76% for the first, 15.6% for the second.

Compared with `COc1ccccc1/C=C/C=C(\C#N)C(=O)NC(C)c1ccccc1` (stereo not drawn), `O=C(NC(C(=O)O)c1ccccc1)c1ccccc1` (stereo not drawn) is higher in “hERG current change (%, negative = inhibition) at 1uM” value: 13.1% for the first, 13.9% for the second.

Going from `COc1ccccc1CNC(=O)c1ccc(S(=O)(=O)N2CCCC2)cc1` to `CCc1nnc(NC(=O)c2ccc(S(=O)(=O)N3CCCC3)cc2)s1`, the “hERG current change (%, negative = inhibition) at 1uM” value rises from 6.7% to 11.6%.

First: COC(=O)c1ccc(OCC2c3cc(OC)c(OC)cc3CCN2C(C)=O)cc1 (stereo not drawn)
Second: COc1cc([N+](=O)[O-])ccc1NC(=O)CN1CCc2cc(OC)c(OC)cc2C1
The “hERG current change (%, negative = inhibition) at 1uM” value of the first is higher: 10.9% for the first, 6.32% for the second.

First: CCc1ccc(-c2ccc(C(=O)O)c(C)n2)cc1
Second: Cc1nc2cc(-c3ccc(F)cc3)[nH]n2c(=O)c1C
The “hERG current change (%, negative = inhibition) at 1uM” value of the first is lower: -0.621% for the first, 5.7% for the second.

Going from `Cc1cccc(NC(=O)Cc2c(F)cccc2Cl)n1` to `Cc1onc(-c2c(F)cccc2Cl)c1C(=O)NC(=S)NCc1cccnc1`, the “hERG current change (%, negative = inhibition) at 1uM” value rises from 10.7% to 14.7%.

First: O=C(CCSCc1ccc(Cl)cc1)NC1CCCC1
Second: O=C(CCN1CCOCC1)NCC1COc2ccccc2O1 (stereo not drawn)
The “hERG current change (%, negative = inhibition) at 1uM” value of the first is lower: 7.09% for the first, 14.1% for the second.

Going from `O=c1[nH]nc(CNc2ccc(O)cc2)c2ccccc12` to `O=C(NN1CCOCC1)c1cc(-c2ccc(Br)cc2)nc2ccccc12`, the “hERG current change (%, negative = inhibition) at 1uM” value rises from 0.201% to 3.31%.

Going from `CCOc1ccc(S(=O)(=O)n2cc(F)c(=O)[nH]c2=O)cc1` to `COc1ccc(S(=O)(=O)N2CCCN(CC(=O)Nc3ccccc3F)CC2)cc1`, the “hERG current change (%, negative = inhibition) at 1uM” value falls from 18.8% to -4.74%.

Going from `CC(C)C(=O)Nc1oc(-c2ccccc2)cc1C#N` to `Nc1nc(-c2cc(-c3ccccc3)no2)cs1`, the “hERG current change (%, negative = inhibition) at 1uM” value falls from 13% to 9.47%.

Compared with `O=C1CCc2cc(S(=O)(=O)NC(C(=O)N3CCN(c4ccccn4)CC3)c3ccccc3)ccc2N1` (stereo not drawn), `CCc1nc(Nc2ccc(N3CCN(C(C)=O)CC3)cc2)c2oc3ccccc3c2n1.Cl` is lower in “hERG current change (%, negative = inhibition) at 1uM” value: 8.66% for the first, -7.41% for the second.

Compared with `Cc1cccc(NS(=O)(=O)c2ccc(NS(=O)(=O)c3cccs3)cc2)c1`, `CCS(=O)(=O)N1Cc2ccccc2CC1C(=O)Nc1cccc(S(=O)(=O)N(C)C)c1` (stereo not drawn) is higher in “hERG current change (%, negative = inhibition) at 1uM” value: 13% for the first, 16.1% for the second.

First: O=C(Nc1ccccc1C(=O)N1CCOCC1)c1cc2ccccc2o1
Second: COc1ccc(C(=O)Nc2ccc(CN3CCOCC3)cc2)cc1
The “hERG current change (%, negative = inhibition) at 1uM” value of the first is higher: 13.7% for the first, 8.74% for the second.

Compared with `CCOc1ccc(CC(=O)NNC(=S)Nc2ccc(OC)c(OC)c2)cc1`, `COc1ccc(CNCCC(c2ccc(OC(C)C)cc2)c2ccccc2OC)cc1OC` (stereo not drawn) is lower in “hERG current change (%, negative = inhibition) at 1uM” value: 2.85% for the first, -9.62% for the second.

First: Cc1cc(C)n(-c2nnc(C)n2NS(=O)(=O)c2ccc(F)cc2)n1
Second: CCN(c1ccc(F)cc1)S(=O)(=O)c1cccc2nsnc12
The “hERG current change (%, negative = inhibition) at 1uM” value of the first is lower: 9.16% for the first, 14.5% for the second.

Compared with `CC(=O)Nc1ccc(NC(=O)CSc2nnc(NC(=O)c3ccco3)s2)cc1`, `CCCCC(=O)Nc1ccc(C(=O)Nc2cccnc2)cc1` is higher in “hERG current change (%, negative = inhibition) at 1uM” value: -1.71% for the first, 0.268% for the second.

Compared with `COc1cc(OC)cc(-c2c(-c3cccs3)c3cc(-c4ccc(OC)nc4)ccc3n2C)c1`, `CC1(C)CC(C)(c2ccc(O)cc2O)N(c2ccc3ccccc3c2)C(=S)N1` (stereo not drawn) is higher in “hERG current change (%, negative = inhibition) at 1uM” value: 2.9% for the first, 9.77% for the second.

Going from `CCCNc1nc(Nc2ccc(C)cc2)nc(N2CCCC2)n1` to `Cc1cccc(C(=O)NCC(=O)N2CCCCCCC2)c1`, the “hERG current change (%, negative = inhibition) at 1uM” value rises from 5.61% to 10.1%.

First: COC(=O)c1ccc(CSc2ccc3nnc(-c4ccccc4)n3n2)o1
Second: O=C(NCc1ccco1)c1ccc2c(c1)C(=O)N(Cc1ccccc1)C2=O
The “hERG current change (%, negative = inhibition) at 1uM” value of the first is higher: -9.01% for the first, -27.1% for the second.

Going from `O=C(C1CCN(C2CCN(Cc3ccc4c(c3)CCO4)CC2)CC1)N1CCCC1` to `CCOc1ccc(CNC(=O)C(CC)n2nc(C)n3c(cc4occc43)c2=O)cc1OC` (stereo not drawn), the “hERG current change (%, negative = inhibition) at 1uM” value rises from -13.3% to 3.66%.

Compared with `C=CCN1C(=O)NC(=O)/C(=C/c2cnc(SC)nc2)C1=O`, `Cc1cc(C(=O)CSc2nc(N)cc(=O)[nH]2)c(C)n1Cc1ccco1` is higher in “hERG current change (%, negative = inhibition) at 1uM” value: 0.156% for the first, 9.98% for the second.

Going from `COc1ccccc1NC(=S)N1CCNC(=O)C1CC(=O)Nc1cccc(C)c1` (stereo not drawn) to `COCCNc1cc(C)nc2c(-c3ccccc3OC)c(C)nn12`, the “hERG current change (%, negative = inhibition) at 1uM” value rises from -2.39% to 5.98%.

Going from `CCn1ncc(C2=NOC(C(=O)NCC(C)C)C2)c1C` (stereo not drawn) to `CCSc1nnc(-c2ccccc2SC)o1`, the “hERG current change (%, negative = inhibition) at 1uM” value rises from 5.97% to 10.8%.

Compared with `C=CCC1NS(=O)(=O)OCC1NC(=O)OCC(Cl)(Cl)Cl` (stereo not drawn), `Cc1ccc(C)c2[nH]c(=O)c(CCNC(=O)C(C)(C)C)cc12` is higher in “hERG current change (%, negative = inhibition) at 1uM” value: 12.3% for the first, 15.6% for the second.

Going from `Cc1nn(Cc2c(F)c(F)c(F)c(F)c2F)c(C)c1NC(=O)c1cccc(COc2ccccc2Cl)c1` to `CC(C)CCn1c(SCC#N)nc2c(sc3ccccc32)c1=O`, the “hERG current change (%, negative = inhibition) at 1uM” value rises from -3.99% to 11.1%.

Going from `COc1cc2c(CCNC(C)=O)c[nH]c2cc1O` to `Cc1cc(SCC(=O)OCC(=O)c2c(N)n(C)c(=O)n(C)c2=O)c(C)cc1Br`, the “hERG current change (%, negative = inhibition) at 1uM” value falls from 8.32% to 1.38%.

`Nc1cccc2nsnc12` was tested, and the “hERG current change (%, negative = inhibition) at 1uM” value was 6.97%.
